± gives the standard deviation of the averaged measurements. The list shows a part of the results.
Tested on: PfAP2-G AP2 domain (GST-tagged)
Assay: gcPBM binding intensity (ln(normalized median fluorescence intensity)); higher = stronger DNA binding
Method in brief: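 Each value is the highest Masliner-normalised natural-log median intensity across replicate spots of either orientation of a probe. The probes were primer-extended double-stranded 36-bp intergenic genomic sequences on an Agilent 4 × 180k array, alongside negative controls, exposed for 1 h to GST-tagged P. falciparum DNA-binding domains expressed in E. coli. Bound protein was picked up with Alexa488 anti-GST antibody and scanned at 488 nm.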

| Sequence | gcPBM binding intensity (ln) |
| --- | --- |
| TTAGCAACTATTACTACACACATTTGTATATAACTT [CACACA_site6850] | 10.09 ± 0.028 |
| GTGGAAATATAACACATTTTTTTTAATAATTATATT [TGCATGCA_negctrl_site522] | 9.67 ± 0.16 |
| TTACCTTTTTCTAATGGTACACATAAAATATCATTT [XGTACX_site6825] | 11.1 ± 0.73 |
| TTTTCTTACACGAATTTTAAATTCAATATTAAACAT [CACACA_negctrl_site286] | 10.1 ± 0.14 |
| GAGTTAATTTTTTCGTGTACTTGAAAATATTTTTTT [XGTACX_site6392] | 11.4 ± 0.89 |
| TATATATATATATATATACACACGTATATATATACA [CACACA_site4155] | 10 ± 0.45 |
| ATATCTTTGCAAAGATGTACTTGTAAAAATATATGA [XGTACX_site768] | 11.3 ± 0.95 |
| TAATATCAATATAAAGTACACACTATAGTATGTATT [CACACA_site2280] | 11.3 ± 0.87 |
| TTTATATTTAAATATATATGAGAAAACACAAAATAT [TGCATGCA_negctrl_site211] | 10.105 ± 0.007 |
| TAAAAGTAAAGACATGCATGCATTGGTATCTTTTAC [TGCATGCA_site665] | 9.81 ± 0.17 |
| GACCCACTTTTCTGCACACATAAAAAATATATAAAT [CACACA_site4483] | 10.5 ± 0.38 |
| TATAATAAAACTTTTACACACTTTAAAAAAAAAAAA [CACACA_site6392] | 9.75 ± 0.23 |
| GCTTCATTTTAAACTTGTACTTATTTTTTGGTAAAT [XGTACX_site8879] | 11.4 ± 0.96 |
| TTGTTTGTTGTAACGTGTACAGATAAAAATAAAGGG [XGTACX_site375] | 11.5 ± 0.93 |
| TTCATATTATAGTGCACACAAAAATATATATATGGT [CACACA_site2855] | 10.7 ± 0.39 |
| TCTCTCATTTATTTTTGTACTTAATCCAGCACGTTT [XGTACX_site1369] | 11.1 ± 0.69 |
| ACATATTAATTATAAAGTACATATATATATATATAT [XGTACX_site4540] | 11.3 ± 0.79 |
| TAGTTACTTCTTATATAAAATATGTATATAAAAATA [GTGCAC_negctrl_site190] | 9.87 ± 0.18 |
| TTCCTTTTGAACTCTCGTACGCGTAGGTGTTATTAT [XGTACX_site6264] | 11.2 ± 0.79 |
| TATTAAAAGTAAAAAACACACATGGATATATACATA [CACACA_site3959] | 10.02 ± 0.042 |
| CATTTTTAAAAAAATTGTACAAAACATATATGTGTA [XGTACX_site3396] | 10.9 ± 0.4 |
| TTTTTTTTTTGATGTTGTACTTATATACTATATAAT [XGTACX_site2778] | 11.3 ± 0.86 |

| Sequence | gcPBM binding intensity (ln) |
| --- | --- |
| GTTGTGTAATTCGTAACACACATAAAATATAAATAA [CACACA_site7799] | 10.2 ± 0.17 |
| AAAAAAAAAAAAAAAAAAAAAAAAATATATATATAT [CACACA_negctrl_site436] | 11.1 ± 0.44 |
| TTACTATATAATATGTGTACACAACATATAATATAT [XGTACX_site1383] | 11.6 ± 0.91 |
| TAAATAAATAAAAAAACACACATATAAATATAAATA [CACACA_site7815] | 9.67 ± 0.17 |
| TGTTTCCTATTTTGTATGCACTTTTTGTCATAATTA [GTGCAC_site9921] | 10.3 ± 0.23 |
| TATATTGCCCTTCACACACACACATATATATATATA [CACACA_site2492] | 10.3 ± 0.26 |
| TAAAAATGTTGACACACACACATAAATATATTTTAT [CACACA_site7227] | 10.4 ± 0.34 |
| ATTTTTATACCTAAGTGTACATGATGTTTTCTTTTT [XGTACX_site973] | 11.2 ± 0.73 |
| TATTATATAATAAAAATTATTATTATTTGTATAAAT [CACACA_negctrl_site195] | 9.69 ± 0.22 |
| TATGTGTGACAAAATTGTACGGTCTCTTTATTTTGT [XGTACX_site2679] | 10.8 ± 0.42 |
| TATACGGACTCTAAGTGTACTTAAAATAATTCAAAC [XGTACX_site3606] | 11.5 ± 0.84 |
| TTTATAGTTTTTAATAGTACACATATTTTTAAGTAT [XGTACX_site5498] | 11.2 ± 0.86 |
| TTTTGTGGAGGATGGTGTACGGTATTGTATTATTAC [XGTACX_site1942] | 11.1 ± 0.64 |
| TATCATAAAATATGTAGTACGTATATATATAAAAAT [XGTACX_site5455] | 11.5 ± 0.8 |
| CATATACTCGGACACACACACACACCGACAAAAAAA [CACACA_site4433] | 11.2 ± 0.73 |
| TAAACAGACATACATACACACATACATACAGACATA [CACACA_site6997] | 10.1 ± 0.18 |
| AAAAAAAAAGTATATATATATTTAAGGAATTCTCTC [GTGCAC_negctrl_site454] | 9.885 ± 0.064 |
| CAACCTTTTTTGTTGGTGCATAATTTTTTTTTCTTT | 10.3 ± 0.11 |
| ATATATATATATTGCACACATATAAATATATATATT [CACACA_site807] | 10.1 ± 0.63 |
| ATACATTTTTTTTTCACACATATATATATATTTAAT [CACACA_site5995] | 9.98 ± 0.12 |
| CTCACGTAGCTTGATGCATGCAAACTTGAGTAAAAG [TGCATGCA_site409] | 9.925 ± 0.078 |
| TTTATAAAATTTATTGCACACAATTATTTTATAATT [CACACA_site2489] | 9.97 ± 0.085 |

| Sequence | gcPBM binding intensity (ln) |
| --- | --- |
| AATATATAGCTAAAAACACACAAATATATACTCATA [CACACA_site5904] | 9.9 ± 0.042 |
| ATATGTACGCAAGGTGCACACTGGTGCATTAAAAAA [CACACA_site1801] | 11.6 ± 1.2 |
| GTATATATATATATATGTACATATATGTAGATATAT [XGTACX_site5431] | 11.1 ± 0.54 |
| AATATATCCTATTCGAACAAAAATACATGCACATAT [CACACA_negctrl_site1058] | 10.14 ± 0.042 |
| TTTTATTTTTTCTCACGTACAAATATATAATTTTTT [XGTACX_site6952] | 11.1 ± 0.53 |
| TACATATGGCACATATGTACACACGTATAGATAATA [XGTACX_site4123] | 11.3 ± 0.77 |
| ATGAATATAAAATATACACACTTATATATCGAATGA [CACACA_site6240] | 9.79 ± 0.13 |
| CACAGACATATATATACACACTTTTATTTAAATAAC [CACACA_site4962] | 10.3 ± 0.23 |
| TCTCAGTAAATTAAATGTACATAAGGGAGGAACTAT [XGTACX_site8045] | 11 ± 0.63 |
| TTGTGGATTTTGTGCGCACACACATGCAAAAAGAAA [CACACA_site1147] | 10.9 ± 0.66 |
| TAAATATATGCATATACACACAACAAAAAAATATAT [CACACA_site2341] | 10.07 ± 0.028 |
| TATAAAAATAATATTACACACATGTAAAATGGCTGT [CACACA_site5755] | 9.86 ± 0.028 |
| AAAAAAAAAATGTGCACACGCGTACACCCAAAAAAA [CACACA_site5149] | 11.7 ± 0.99 |
| TTTTTGTATCCTTCTTCTTTTTCCAGACTACATTAT [XGTACX_negctrl_site216] | 10.3 ± 0.18 |
| ATATTATTTTAAAAAAGTACATTTTTAAGAATTCTT [XGTACX_site6630] | 11.2 ± 0.79 |
| AACATATAAATAAACTGTACATATATATATATATAT [XGTACX_site1056] | 11 ± 0.69 |
| GGGGAAAAAAAAAAAGGAAAAAGAAAAAAAAAAAAA [GTGCAC_negctrl_site489] | 9.86 ± 0.28 |
| TATCATTATGTAGAAACACACATAAGCTTCGGTTCA [CACACA_site2766] | 9.7 ± 0.18 |
| AATTGCATAATATATTCACACATTTTTAAGTGATAC [CACACA_site5679] | 9.93 ± 0.13 |
| GTAAAGGCTATATATGTGCACATTTTTTTTTTTTTT [GTGCAC_site9925] | 10.27 ± 0.092 |
| TTATGGTTATACATATGTACATATATATATATATAT [XGTACX_site1494] | 11.4 ± 0.92 |
| ATAAAATTTATATAAGCACACAAATATATATTTATA [CACACA_site9083] | 9.95 ± 0.014 |

| Sequence | gcPBM binding intensity (ln) |
| --- | --- |
| ATATATTTAATTTATGGTACACATAATTTTTTTAGA [XGTACX_site848] | 11.2 ± 0.79 |
| ATATTATATAAATATACACACATTGTTTTATAGCAT [CACACA_site2386] | 10.02 ± 0.035 |
| AAAAAAAAATACATATGTACATATACATATATATAT [XGTACX_site2975] | 11 ± 0.58 |
| CACAAAAGTAAGCACGCACACACAACCTGAAATAAA [CACACA_site166] | 10.3 ± 0.24 |
| TTAAAAAAAAGACACACACACATACACATATTTATA [CACACA_site7535] | 10.2 ± 0.18 |
| TATATATATATATATACACACATATATATAAATATA [CACACA_site2035] | 10 ± 0.71 |
| TTAGTCATATATATATGTACACACATATATATATTT [XGTACX_site2948] | 11.3 ± 0.9 |
| ATTTTTATATAATGAACACACATATTATATCATTTA [CACACA_site1572] | 9.84 ± 0.085 |
| AAAAGAAAATAAGAAACACACAAAAATATGTAAAAA [CACACA_site7694] | 9.85 ± 0.2 |
| TTATATATATATATATGTACGAAAAAGAAAAAAAAG [XGTACX_site6761] | 11.1 ± 0.76 |
| TATATATATATAATATGTACATATAATCAACATTTT [XGTACX_site3915] | 11.2 ± 0.69 |
| AAAATCCACATTTTAGTACACACTTAAAAAATTATT [CACACA_site2955] | 11.3 ± 0.86 |
| GAACATACTCAAATAGCACACACATAAATAAAAATG [CACACA_site9283] | 10.4 ± 0.42 |
| TTTTCTGTATATTGTGTGCACACAATTAACAAAAAA [GTGCAC_site9817] | 10.7 ± 0.47 |
| AAAAAAAAAAAAAATGCACACAATGGCTAGCTGTAC [CACACA_site2273] | 11.1 ± 0.46 |
| TGGAGGTCAGTTCACAGTACCCAGGAAATCTACGGA [XGTACX_site1995] | 10.9 ± 0.61 |
| ACCCATGATTGTTACAGTACTCTACTTTCTAATATA [XGTACX_site98] | 11 ± 0.52 |
| AAACTGTCGCTCATAAAGAAGAATGAAATACATTAA [TGCATGCA_negctrl_site60] | 10.1 ± 0.34 |
| ATATATGCATATTATACACACATATGTATATACATT [CACACA_site965] | 9.995 ± 0.035 |
| ATTTATTTTAATATATGTACATATATTTTTTTATTA [XGTACX_site3389] | 11.1 ± 0.68 |
| ATATAATATTACACAAGTACAAAAATTAATACTAAA [XGTACX_site482] | 11.1 ± 0.61 |
| CCATAGATATTTTATACACACATATAACATATTAAT [CACACA_site6312] | 9.88 |

— the supplement of paper PMC11417369
